Data published in publication PMC4673198.
Results are given in words; binding and its absence hold for the method and conditions named. Binding seen in cells or lysates may run through a third protein. Some binding calls cover weakened binding; strength is not graded here. For some assays here: Tags and fused reporters may be left off the sequences shown.

Sequences of proteins named here, by UniProt entry; tags and fusion partners are left off.
UniProt Q9UKT5: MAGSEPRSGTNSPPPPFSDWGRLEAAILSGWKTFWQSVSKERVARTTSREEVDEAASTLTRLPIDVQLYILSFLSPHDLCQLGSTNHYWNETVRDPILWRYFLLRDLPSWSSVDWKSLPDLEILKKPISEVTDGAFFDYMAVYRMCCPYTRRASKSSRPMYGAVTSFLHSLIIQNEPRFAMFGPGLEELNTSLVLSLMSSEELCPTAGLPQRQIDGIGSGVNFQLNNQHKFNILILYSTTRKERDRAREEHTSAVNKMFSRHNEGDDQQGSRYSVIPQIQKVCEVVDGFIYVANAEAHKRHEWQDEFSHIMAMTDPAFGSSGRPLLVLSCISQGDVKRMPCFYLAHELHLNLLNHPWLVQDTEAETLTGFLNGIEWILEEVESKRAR
UniProt Q8NEZ5: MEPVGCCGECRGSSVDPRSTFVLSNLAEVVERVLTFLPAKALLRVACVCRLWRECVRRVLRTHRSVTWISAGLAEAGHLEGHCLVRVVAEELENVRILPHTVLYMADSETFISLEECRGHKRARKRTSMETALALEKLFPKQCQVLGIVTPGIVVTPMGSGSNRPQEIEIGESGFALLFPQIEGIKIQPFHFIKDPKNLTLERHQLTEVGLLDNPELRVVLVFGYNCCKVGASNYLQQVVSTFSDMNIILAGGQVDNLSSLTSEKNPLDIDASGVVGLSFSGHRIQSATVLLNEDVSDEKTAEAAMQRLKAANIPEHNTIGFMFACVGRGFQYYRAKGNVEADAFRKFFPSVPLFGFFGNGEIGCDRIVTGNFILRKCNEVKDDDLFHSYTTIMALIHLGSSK
UniProt O43474: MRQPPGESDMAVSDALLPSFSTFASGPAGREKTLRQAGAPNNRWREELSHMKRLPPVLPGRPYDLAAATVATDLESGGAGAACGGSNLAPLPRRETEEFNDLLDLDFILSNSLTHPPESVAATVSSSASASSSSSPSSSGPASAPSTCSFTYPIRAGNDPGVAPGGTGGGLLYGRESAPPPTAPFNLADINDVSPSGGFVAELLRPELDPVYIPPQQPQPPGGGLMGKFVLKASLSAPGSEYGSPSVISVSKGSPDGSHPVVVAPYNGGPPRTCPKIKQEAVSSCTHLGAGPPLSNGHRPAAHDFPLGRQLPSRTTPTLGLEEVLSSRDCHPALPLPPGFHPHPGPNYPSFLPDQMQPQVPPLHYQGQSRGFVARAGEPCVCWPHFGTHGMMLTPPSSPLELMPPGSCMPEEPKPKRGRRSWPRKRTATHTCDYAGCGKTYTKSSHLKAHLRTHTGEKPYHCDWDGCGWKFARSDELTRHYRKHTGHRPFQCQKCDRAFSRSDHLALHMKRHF

Experiments:
Experiment in all cases: co-IP; FLAG tagged human F-box proteins transfected into 293T cells and immunoprecipitated; endogenous KLF4 and SKP1 looked for
[1] = molecular target: FLAG tagged FBXO4 (human) (UniProt Q9UKT5)
[2] = molecular target: T1, FLAG tagged FBXO6 (human) (UniProt Q9NRD1)
T1 sequence: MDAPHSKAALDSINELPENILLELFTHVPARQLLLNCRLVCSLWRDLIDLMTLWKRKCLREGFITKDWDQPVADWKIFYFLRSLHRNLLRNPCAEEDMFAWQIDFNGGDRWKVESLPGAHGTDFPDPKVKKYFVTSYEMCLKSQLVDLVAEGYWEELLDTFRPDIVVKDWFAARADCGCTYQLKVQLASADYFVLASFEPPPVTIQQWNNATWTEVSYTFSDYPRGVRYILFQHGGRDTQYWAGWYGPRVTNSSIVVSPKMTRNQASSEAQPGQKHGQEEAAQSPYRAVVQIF

[3] = molecular target: T2, FLAG tagged FBXO36 (human) (UniProt Q8NEA4)
T2 sequence: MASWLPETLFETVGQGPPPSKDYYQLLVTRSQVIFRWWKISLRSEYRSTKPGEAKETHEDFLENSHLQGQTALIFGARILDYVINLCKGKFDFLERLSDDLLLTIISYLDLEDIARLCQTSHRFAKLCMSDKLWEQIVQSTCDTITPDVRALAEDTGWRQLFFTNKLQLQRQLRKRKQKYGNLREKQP

[4] = molecular target: T3, FLAG tagged FBXO30 (human) (UniProt Q8TB52)
T3 sequence: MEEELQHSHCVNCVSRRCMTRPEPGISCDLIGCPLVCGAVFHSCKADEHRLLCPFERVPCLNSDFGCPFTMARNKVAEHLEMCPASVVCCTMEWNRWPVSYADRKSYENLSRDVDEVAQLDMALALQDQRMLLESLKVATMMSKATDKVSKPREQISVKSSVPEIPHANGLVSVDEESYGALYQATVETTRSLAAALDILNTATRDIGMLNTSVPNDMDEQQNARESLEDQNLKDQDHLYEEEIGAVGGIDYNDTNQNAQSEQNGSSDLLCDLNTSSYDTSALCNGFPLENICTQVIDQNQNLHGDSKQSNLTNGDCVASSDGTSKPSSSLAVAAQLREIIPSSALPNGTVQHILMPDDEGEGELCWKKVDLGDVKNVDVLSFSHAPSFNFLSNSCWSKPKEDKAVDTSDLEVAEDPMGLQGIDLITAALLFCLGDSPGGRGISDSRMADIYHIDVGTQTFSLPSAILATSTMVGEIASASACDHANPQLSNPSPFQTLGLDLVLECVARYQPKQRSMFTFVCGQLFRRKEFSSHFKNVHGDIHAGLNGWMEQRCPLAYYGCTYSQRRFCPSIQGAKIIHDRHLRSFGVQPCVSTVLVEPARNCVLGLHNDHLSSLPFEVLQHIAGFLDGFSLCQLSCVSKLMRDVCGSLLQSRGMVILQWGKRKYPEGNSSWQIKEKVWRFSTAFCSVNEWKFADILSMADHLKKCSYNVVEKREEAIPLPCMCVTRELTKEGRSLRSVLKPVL

[5] = molecular target: T4, FLAG tagged FBXO34 (human) (UniProt Q9NWN3)
T4 sequence: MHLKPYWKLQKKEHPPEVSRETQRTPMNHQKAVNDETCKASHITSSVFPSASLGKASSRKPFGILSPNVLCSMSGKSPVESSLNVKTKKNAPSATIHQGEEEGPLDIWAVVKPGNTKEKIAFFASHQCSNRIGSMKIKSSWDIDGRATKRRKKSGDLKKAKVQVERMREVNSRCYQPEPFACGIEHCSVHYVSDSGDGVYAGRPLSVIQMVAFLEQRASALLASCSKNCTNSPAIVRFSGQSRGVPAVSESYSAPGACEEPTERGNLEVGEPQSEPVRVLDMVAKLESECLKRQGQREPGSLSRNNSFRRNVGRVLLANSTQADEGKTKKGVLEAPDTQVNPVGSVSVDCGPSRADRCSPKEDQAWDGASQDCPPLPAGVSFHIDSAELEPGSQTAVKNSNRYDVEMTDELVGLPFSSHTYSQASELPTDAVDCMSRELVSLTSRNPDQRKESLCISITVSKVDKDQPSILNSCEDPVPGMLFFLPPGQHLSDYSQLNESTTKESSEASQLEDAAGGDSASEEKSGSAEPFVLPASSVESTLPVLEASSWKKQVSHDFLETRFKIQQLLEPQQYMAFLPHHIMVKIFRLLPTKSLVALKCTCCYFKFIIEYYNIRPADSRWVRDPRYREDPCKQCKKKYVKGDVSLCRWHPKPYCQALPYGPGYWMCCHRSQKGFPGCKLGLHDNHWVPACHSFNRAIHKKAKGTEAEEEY

[6] = molecular target: FLAG tagged FBXO22 (human) (UniProt Q8NEZ5)

Row | binding [1] | binding [2] | binding [3] | binding [4] | binding [5] | binding [6] | Substance
1 | binds | binds | binds | binds | binds | – | SKP1 in 293T cells (from UniProt P63208 1-163)
2 | no binding | no binding | no binding | no binding | no binding | binds | KLF4, endogenous in 293T (from UniProt O43474 1-513)
